Experimental data taken from the RNAGym collection of RNA variant scans (doi:10.1073/pnas.2313332121).
Variants at the background level are over-represented here.

B1: TPR 5TU (parent)
chain: GGAUCUUCUCGAUCUAACAAAAAAGACAAAUCUGCCACAAAGCUUGAGAGCAUCUUCGGAUGCAGAGGCGGCAGCCUUCGGUGGCGCGAUAGCGCCAACGUUCUCAACUAUGACACGCAAAACGCGUGCUCCGUUGAAUGGAGUUUAUCAUG

Variants of: B1
Test: polymerase ribozyme fitness, log enrichment relative to wild type (log ratio); higher = more active; in vitro selection for triplet polymerase activity
In short: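 Only genotypes with ≥10 input reads and ≥1 read per output were kept after Illumina sequencing of input and output libraries. These libraries were PCR-built, transcribed mutants of each subunit of a heterodimeric triplet polymerase ribozyme, each put through one triplicate in vitro selection round with frozen incubation at −7 °C, gel excision of extended constructs, streptavidin-bead capture and RT-PCR. Fitness is a logarithmic ratio of genotype enrichment to wild-type enrichment, from inverse-variance-weighted replicate averages, with the logarithm in base 2.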

Row | Variant | polymerase ribozyme fitness (log ratio)
1 | GGAUCUUCUCGAUAUAACAAAAAAGACUAAUCUGCCACAAAGCUUGAGAGCAUCUUCGGAUGCAGAGUCGGCAGCCUUCGGUGGCGCGAUACCGCCAACGUUCUCAACUAUGACACGCAAAACGUGUGCUCCGUUGCAUGGAGUUUAUCCUG | ≤ -4.2
2 | GGAUCUUCUCGAUAUAUCAAAAAAGACAAAUCUGCCACAUAGCUUGAGAGCAUCUUGGGAUGCAGAGGCGGCAGCCUUCGGUGUCGCGAUAGCGCAAACGUUCUCAACUAUGACACGCAACACGCGUGCUCCGUUGAAUGGAGUUUAUCAUG | ≤ -4.2
3 | GGAUCUUCUCGAGCUAACAAAAAAGACAAAUCUGCCACAAAGCUUGAGAGCAUCUGCGGAUGCAGAGGCGGCAGGCUUCGGUGGCGCGAUAGCGCCAACGUUCUCAACUAUGACACGCAAAACGCGUGCUCCGUUGAAUGGAGUUUAUCAUG | ≤ -4.2
4 | GGAUCUUCUCGAUAUAACAAAAAAGAGAAAUCUGCCACAAAGCUUGAGAGCAUCUUCGGAUGCAGAGGCGGCAGCCUUCGGUGGCGCGAUCGCGCCAACGUUCUCAACUAUGACGCGCAAAACGCGUGCUCCGUUGAAUGGAGUUUAUCAUG | ≤ -4.2
5 | GGAUCUUCUCGAGCUAACAAAAAAGACAAAUCUGCCACAAAGCUUGAGAGCAUCUACGGAUGCAGAGGCGGCAGCCUUCGGUGGCGCGAUAGCGCCAACGUUCUCAACUAUGACACGCAAAACGCGUGCUCCGUUGAAUGGAGUUUAUCAUG | -0.285
6 | GGAUCUUCUCGAUAUCACAAAAAAGACGAAUCUGCCACAAAGCUUGAGAGCAUCUUCGGGUGCAGAGGCGGCAGCCUUGGGUGGCGCGAUGGCGCCAACGUUCUCAACAAUGACACGCAAAACGCGUGCUCCGUUGAAUGGAGUUUAUCAUG | ≤ -4.2
7 | GGAUCUUCUCGAUAUAACAAAAAAGACAAAUCUGCCACACAGCUUGAGAGCAUCUUCGGAUGCAGAGGCGGCAGCCUUCGGUGGCGCGAUACCGCCAACGUUCUCAACUAUGACACGCAAAACGCGUGCUCCGUUGAAUGGAAUUUAUCAUG | ≤ -4.2
8 | GGAUCUUCUCGAUAUAACAACAAAGAAAAAUCUGCCACAAAGCUUGAGAGCAUCUUCGGAUGCAGAGGCGGCAGCCUUCGGUGGCGCGAUAGCGCCAAUGUUCUCAACUAUGACACGCAAAACGCGUGCUCCGUUGAAUGGAGUGUAUCAUG | ≤ -4.2
9 | GGAUCUUCUCGAUAUAACACAAAAGACAAAUCUGCCACAAAGCUUGAGAGCAUCUUCGGAUGCAGAGGCGGCAGCCUUCGGUGGCGCGAUAGCGCUAACGUUCUCAACUAUGACACGCAAAACGCGUGCUCCGUUGAAUGGAGUUUAUCAUG | -1.32
10 | GGAUCUUCUCGAUAUAACAAAAAAGACAAUUCUGCCACAAAGCUUGAGAGCAUCUUCGGAUGUAGAGGCGGCAGCCUUCGGUGGUGCGCUCGCGCCAACGUUCUCAACUAUGACACGCAAAACGCGUGCUCCGUUGAAUGCAGUUUAUCAAG | ≤ -4.2
11 | GGAUCUUCUCGAGCUAACAAAAAAGACAAAUCUGCCACAAAGCCUGAGAGCAUCUUCGGAUGCAGAGGCGGCAGCCUUCGGUGGCACGAUCGCGCCAACGUUCUCAACUAUGACACGCAAAACGCGUGCUCCGUUGAACGGAGUUUAUCAUG | ≤ -4.2
12 | GGAUCUUCUCGAUAUAACAAAAAAGCCAAAUGUGCCACAAGGCUUGAGAGCAUCUUCGGAUGCAGAGGCGGCAGCCUUCGGUGGCGCUAUAGCGGCAACGUUCUCAACUAUGACACGCAAAACGCGUGCUCCGUUGAAUGGAGUUUAUCAUG | ≤ -4.2
13 | GGAUCUUCUCGAUAUAACAAAACAGACAAAUCUGCCACAAAGCUUGAGAGCAUCUUCGGAUGCAGUGGCGGCAGCCUUCGGUGGCGCGAUAGAGCCAACGUUCUCAACUAUGACACGCAAAACGCGUUCUCCGUUGAAUGGAGUUUAUCAAG | ≤ -4.2
14 | GGAUCUUCUCGAUAUAACAAAAUAGACAAAUCUGCCACAAAGCUUGAGAGCAUCUUCGGAUGCAGAGGCGGCAACCUUCGGUGGGGCGAUAGCGCCAACGUUCUCUACUAUGACACGCAAAACGCGUGCUCCGUUGAAUCGAGUUUAUCAUG | ≤ -4.2
15 | GGAUCUUCUCGAUAUAACAAUAAAGACAAAUCUGCCACAAAGCUUGAGAACAUCUUCGGAUGCAGAGGCGGCAGCCUUCGGUGGCUCGAUAGCGCCAACGUUCUCAACUAUGACACGCAAAACGCGUGCUCCGUUGAAUGGAGUUUAUCAUG | ≤ -4.2
16 | GGAUCUUCUCGAGCUAACAAAAAAGACAAAUCUGCCACAAAGCAUGAGCGCAUCUUCGGAUGCAGAGGCGGCAGCCUUCGGUGGCGCCAUAGCGCCAACGUUCUCAACUAUGACAAGCAAAACGCGUGCUCCGUUGAAUGGAGUUUAUCAUG | ≤ -4.2
17 | GGAUCUUCUCGAGCUAACAAAAAAGACAAAUCUGCCACAAAGCUUGAGAGCAUCUUCGGAUGCAGAGGCGGCAGCCUUCGGUUGCGCGAUAGCGCCAACGUUCUUAACUAUGACACCCAAAACGCGUGCUCCGUUGAAUGGAGUUUAACAUG | ≤ -4.2
18 | GGAUCUUCUCGAUAUAACCAAAAAGACAAAUCUGCCACAAAGCUUGUGAGCAUCUUCGAAUGCAGGGGCGGCUGCCUUCGGUGGCGCGAUAGCCCCAACGUUCACAACUAUGACACGCAAAACGCGGGCUCCGUUGAAUGGAGUUUAUCAUG | ≤ -4.2
19 | GGAUCUUCUCGAUAUAGCAAAAAAGACAAAUCUGCCACAAAGCUUGAGACCAUCUUCGGAUGCAGAGGCGGCAGCCUUCGGUUGCGCGAUAGCGCCAACGUUCACAACUAUGACGCGCAAAACGCGUGCUCCGUUGCAUGGAGUUUAUCAUG | ≤ -4.2
